{"source": "PubChem BioAssay AID485294", "about": "(National Center for Advancing Translational Sciences (NCATS), 2010)", "note": "Among all 370,000 compounds or so, about 150 (0.041%) were called active. Inconclusive results, whose numbers are uncertain, are shown with a selection of clear calls. Calls follow the shape of the dose curve; as a rule, active = well fitted inhibition curve with a large enough effect; inconclusive = small, poorly fitted or top-dose-only effect; inactive = flat fitted curve, though single readings scatter. No potency is given beside an inconclusive call; the fits are too rough. Potency is read from the fitted curve at half-maximal effect; tags tell the direction and shape of the fitted curve."}
{"target": "Beta-lactamase (Escherichia coli (strain K12)) (UniProt P00811)", "sequence (P00811 whole entry, looked up)": "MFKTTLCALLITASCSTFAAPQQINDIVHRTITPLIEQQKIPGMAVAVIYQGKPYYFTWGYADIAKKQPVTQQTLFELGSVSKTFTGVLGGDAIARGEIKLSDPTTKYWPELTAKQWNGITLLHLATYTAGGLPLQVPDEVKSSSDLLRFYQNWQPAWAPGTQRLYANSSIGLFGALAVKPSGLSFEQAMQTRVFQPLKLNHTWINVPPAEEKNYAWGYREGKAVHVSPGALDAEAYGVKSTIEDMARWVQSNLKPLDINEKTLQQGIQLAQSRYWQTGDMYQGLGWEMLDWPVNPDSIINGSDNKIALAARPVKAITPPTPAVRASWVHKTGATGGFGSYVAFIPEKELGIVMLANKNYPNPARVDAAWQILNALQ", "assay": "qHTS Inhibitors of AmpC Beta-Lactamase (assay with detergent); also: nearly all actives have a fitted effect of over 25% in size", "conditions": "AmpC hydrolysis of nitrocefin, absorbance 480 nm, 0.01% Triton; series mostly up to 114 µM", "outline": "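20 mM phosphate pH 7.0 + 0.01% (detergent screen) or 0.0001% Triton X-100; 5.3 nM AmpC reagent; cpd preinc 15 min RT; nitrocefin (800 uM stock) to start; A480 q20 s × 4 min; Activity was normalised to no-enzyme and no-compound control wells.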"}
{"smiles": "CCc1ccc(Nc2n[n+](-c3ccccc3)c(-c3ccc(SC)cc3)s2)cc1", "Potency": "inconclusive [inhibitor, partial curve, poor fit]"}
{"smiles": "Cc1cccc2sc(NC(=O)CN3C(=O)NC4(CCCC4)C3=O)nc12", "Potency": "inconclusive [inhibitor, full curve]"}
{"smiles": "COC(=O)c1ccc(NC(=O)CCC(=O)c2ccc(F)cc2)cc1", "Potency": "inconclusive [inhibitor, full curve, poor fit]"}
{"smiles": "Cc1cc2c(NCCc3ccccc3)ncnc2s1", "Potency": "inactive"}
{"smiles": "CC(C)(C)NC(=O)C(c1ccccn1)N(C(=O)C1CSC(=O)C1)c1ccc(F)cc1", "note": "(stereo not given)", "Potency": "inconclusive [inhibitor, partial curve, poor fit]"}
{"smiles": "Cc1ccc(C2NC(c3ccc(C)cc3)C([N+](=O)[O-])C(C)(C)C2[N+](=O)[O-])cc1", "note": "(stereo not given)", "Potency": "inconclusive [inhibitor, partial curve, poor fit]"}
{"smiles": "COc1ccc(NC(=O)Cn2c(=O)n(-c3ccc(C)cc3)c(=O)c3c2cnn3C)cc1", "Potency": "inactive"}
{"smiles": "Cc1nc(SC(C)C)[nH]c(=O)c1Cc1ccccc1", "Potency": "inconclusive [inhibitor, partial curve, poor fit]"}
{"smiles": "CC1(C)CC(=O)C(Sc2nnc(-c3ccc(NS(C)(=O)=O)cc3)n2Cc2ccco2)C(=O)C1", "Potency": "inconclusive [inhibitor, full curve, poor fit]"}
{"smiles": "CC(C)(Oc1ccc(Cl)cc1)C(=O)OCC(=O)NCCc1ccc(S(N)(=O)=O)cc1", "Potency": "inconclusive [inhibitor, full curve, poor fit]"}
{"smiles": "S=C(NCc1ccccc1)NCc1ccco1", "Potency": "inconclusive [inhibitor, partial curve]"}
{"smiles": "Cc1c(C#N)c2ncn(Cc3ccccc3)c(=O)c2n1-c1ccccc1", "Potency": "inconclusive [inhibitor, full curve, poor fit]"}
{"smiles": "c1csc(CNc2ncnc3ccc(-c4ccc5c(c4)OCCO5)cc23)c1", "Potency": "inconclusive [inhibitor, full curve, poor fit]"}
{"smiles": "O=C(Nc1cccc2ncccc12)C(c1ccccc1)c1ccccc1", "Potency": "inconclusive [inhibitor, full curve, poor fit]"}
{"smiles": "N#C/C(=C\\c1ccc(OCC(N)=O)cc1)C(=O)NC1CC1", "Potency": "inconclusive [inhibitor, full curve]"}
{"smiles": "O=C(NCc1ccc(Cl)cc1)c1cc(-c2ccco2)on1", "Potency": "inactive"}
{"smiles": "CN(C)S(=O)(=O)c1ccc(S(=O)(=O)N2CCN(CCC#N)CC2)cc1", "Potency": "inconclusive [inhibitor, full curve]"}
{"smiles": "COCCNC(=O)CN(CC1CCCO1)C(=O)CCC(=O)Nc1ccccn1", "note": "(stereo not given)", "Potency": "inconclusive [inhibitor, full curve, poor fit]"}
{"smiles": "COc1ccccc1NC(=S)N(CCc1c(C)[nH]c2ccccc12)Cc1cccs1", "Potency": "inconclusive [inhibitor, partial curve]"}
{"smiles": "Cc1sc2ncn(CC(=O)N3CCN(c4ccc(Cl)cc4)CC3)c(=O)c2c1S(=O)(=O)N1CCN(c2ncccn2)CC1", "Potency": "inactive"}
{"smiles": "CC(C#N)(NC(=O)CN1CCN(S(=O)(=O)c2ccccc2C#N)CC1)C1CC1", "note": "(stereo not given)", "Potency": "inconclusive [inhibitor, full curve, poor fit]"}
{"smiles": "NS(=O)(=O)c1ccc(CNC(=O)c2ccc3c(=O)n4c(nc3c2)CCC4)cc1", "Potency": "inconclusive [inhibitor, partial curve, poor fit]"}
{"smiles": "Cc1ccccc1CN1CCCOCCS1(=O)=O", "Potency": "inconclusive [inhibitor, full curve, poor fit]"}
{"smiles": "O=C(NCCNC(=O)c1cnccn1)c1ccc(Cl)c(Cl)c1", "Potency": "inconclusive [inhibitor, single point]"}
{"smiles": "Cc1cc(C)n(C(=O)CNc2ccc(C)c(C)c2)n1", "Potency": "inactive"}
{"smiles": "CCOC(=O)N1CCN(C(=O)c2cccc(-n3c(=S)[nH]c4cc(Cl)ccc4c3=O)c2)CC1", "Potency": "inconclusive [inhibitor, partial curve, poor fit]"}
{"smiles": "COc1ccc2nc(N3CCC(C)CC3)c(C#N)cc2c1", "Potency": "inactive"}
{"smiles": "CN(Cc1nc(-c2ccccc2)no1)C(=O)c1ccco1", "Potency": "inactive"}
{"smiles": "C=C1C(=O)[C@@]23[C@H](O)C[C@@H]4C(C)(C)CC[C@H](O)[C@@]4(C)[C@@H]2CC[C@@H]1[C@H]3O", "Potency": "inconclusive [inhibitor, full curve, poor fit]"}
{"smiles": "CCOC(=O)c1sc2nc(C)n(CC(=O)NCC3CCCO3)c(=O)c2c1C", "note": "(stereo not given)", "Potency": "inconclusive [inhibitor, single point]"}
{"smiles": "Cc1ccccc1C(=O)NCCN1CCOCC1", "Potency": "inactive"}
{"smiles": "CCS(=O)(=O)N1CCc2cc(OC)c(OC)cc2C1", "Potency": "inconclusive [inhibitor, partial curve, poor fit]"}
{"smiles": "Cc1nc(Sc2nnnn2-c2ccccc2)c(C#N)c(C)c1C", "Potency": "inconclusive [inhibitor, full curve, poor fit]"}
{"smiles": "Clc1cccc(-c2ccc3ncnc(NCc4ccc5c(c4)OCO5)c3c2)c1", "Potency": "inconclusive [inhibitor, full curve, poor fit]"}
{"smiles": "CCOC(=O)c1c(C)oc2cc(Br)c(OC)cc12", "Potency": "inconclusive [inhibitor, full curve]"}
{"smiles": "Cc1cc(=O)oc2ccc(OCC(=O)N3CCC(C)CC3)cc12", "Potency": "inconclusive [inhibitor, partial curve]"}
{"smiles": "COCc1cc(C)n(CC(=O)NC(C)c2ccccc2)c(=O)c1C#N", "note": "(stereo not given)", "Potency": "inconclusive [inhibitor, full curve, poor fit]"}
{"smiles": "COc1ccc2nc(N/C(N)=N/C(=S)Nc3ccc(C)c(C)c3)nc(C)c2c1", "Potency": "inconclusive [inhibitor, full curve, poor fit]"}
{"smiles": "O=C(NCc1ccccc1)C(=O)NCC(c1ccco1)N1CCOCC1", "note": "(stereo not given)", "Potency": "inconclusive [inhibitor, partial curve, poor fit]"}
{"smiles": "Cn1nnc2c[n+](CC(=O)c3ccc4ccccc4c3)cc(Br)c21", "Potency": "inactive"}
